Target: T1, GPNMB (Homo sapiens, UniProt Q14956)
T1 construct: V5His; made in house
T1 sequence (Q14956 23-492): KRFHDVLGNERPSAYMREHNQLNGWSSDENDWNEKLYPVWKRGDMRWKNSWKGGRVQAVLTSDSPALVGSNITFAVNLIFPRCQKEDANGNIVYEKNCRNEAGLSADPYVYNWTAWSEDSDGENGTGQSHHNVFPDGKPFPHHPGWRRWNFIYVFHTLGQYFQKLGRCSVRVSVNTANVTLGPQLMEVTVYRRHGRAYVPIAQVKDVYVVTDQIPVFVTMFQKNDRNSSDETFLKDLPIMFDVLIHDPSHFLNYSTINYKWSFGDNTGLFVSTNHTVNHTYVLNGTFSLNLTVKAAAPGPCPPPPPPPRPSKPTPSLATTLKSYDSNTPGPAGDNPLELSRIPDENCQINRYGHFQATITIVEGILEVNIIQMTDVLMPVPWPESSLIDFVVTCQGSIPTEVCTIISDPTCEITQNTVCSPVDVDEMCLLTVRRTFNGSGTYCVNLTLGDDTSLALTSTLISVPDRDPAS
Assay: Epitope binning of anti-GPNMB antibodies (competitive binding)
Conditions: six anti-GPNMB antibodies, three bins
From the text: Certain antibodies, described herein were binned in accordance with the protocol described in U.S. Patent Application Publication No. 20030157730. […] Competitive binding by antibodies from […] supports antibody specificity for similar or adjacent epitopes. Non competitive binding supports antibody specificity for unique epitopes.
Three bins were created to further test the binding of six anti-GPNMB antibodies. Bin 1 included GPNMB antibodies (1.2.1), (1.10.1), and (2.22.1). Bin 2 included GPNMB antibodies (2.3.1) and (1.15.1), and Bin 3 included GPNMB antibody (2.10.1). The results of the binning assays are provided below in Tables 4 and 5.

Epitope bin: Bin 2
B1: Mab2.3.1: human anti-GPNMB antibody; VH SEQ ID NO: 200, VL SEQ ID NO: 209 (antibody, listed as Homo sapiens, V domains shown)
VH: [no letters for about 100 residues]DFFGSGSLLYFDYWGQGTLVTVSSA
VL: DIVMTQTPLSLSVTPGQPASISCKSSQSLLHSGGKTYLYWYLQRPGQPPQLLIYEVSNRFSGVPDRFSGSGSGTDFTLKISRVEAEDVGVYYCMQSIHLPLTFGGGTKVEIKR
